The text below walks through data of the antibiotic and cytotoxicity screens of Wong et al. (2023).

The list shows a part of the results.

The assay concerns HSkMC (human skeletal muscle cells). In words: cytotoxicity call (relative viability < 0.9). As to conditions: 10 µM.
For `Cc1noc(C)c1NC(=O)Nc1ccc2c(c1)C(=O)N([C@@H](C)CO)C[C@@H](C)[C@H](CN(C)C(=O)NC1CCCCC1)OCCCC[C@H](C)O2`, the cytotoxicity call is “inactive”.
As for `C[C@@H]1CCCCO[C@H](CN(C)S(=O)(=O)c2ccc(F)cc2)[C@@H](C)CN([C@H](C)CO)C(=O)c2cc(NC(=O)Cc3ccccc3)ccc2O1`, the entry is “inactive”; as for `C[C@@H]1CN([C@H](C)CO)C(=O)c2cccc(NC(=O)CCCCCC(=O)Nc3ccccc3N)c2O[C@H]1CN(C)C(=O)Nc1ccc(F)cc1`, “inactive”; as for `Nc1ncnc2c1ncn2C1OC(COP(=O)(O)O)C(O)C1O` (stereo not given), “inactive”.
`C[C@@H](CO)N1CC[C@H](CN(C)Cc2ccc(Oc3ccccc3)cc2)Oc2c(NC(=O)c3ccncc3)cccc2C1=O`: the cytotoxicity call is “inactive”.
Take `O=C(C[C@@H]1CC[C@H]2[C@@H](COC[C@H](O)CN2Cc2cc(F)ccc2F)O1)N[C@H]1CCN(Cc2ccccc2)C1`: the cytotoxicity call is “inactive”.
As for `COc1ccc([C@@H]([C@H](Cc2ccccc2)OC(C)=O)N2C[C@@H](CC(=O)N(C)C)[C@H]3[C@@H]([C@@H]2Cc2ccccc2)N(C)O[C@@H]3c2ccccc2)cc1`, the cytotoxicity call was “inactive”.
As for `C[C@@H]1CN([C@@H](C)CO)C(=O)Cc2cc(NS(=O)(=O)c3ccc(F)cc3)ccc2O[C@@H]1CN(C)Cc1ccc(-c2ccccc2)cc1`, the cytotoxicity call is “active”.
In the case of `CN(C)N(C)C(=O)[C@@]1(Cc2ccccc2)CCCN(C(=O)[C@@H](Cc2c[nH]c3ccccc23)NC(=O)C(C)(C)N)C1`, the cytotoxicity call was “inactive”.
Regarding `CC1CN(c2c(F)c(F)c3c(=O)c(C(=O)O)cn(C4CC4)c3c2F)CC(C)N1` (stereo not given), the cytotoxicity call is “inactive”.
With `COc1ccc(CN2C[C@@H](C)[C@H](OC)CN(C)C(=O)c3cc(NC(=O)c4nc5ccccc5s4)ccc3OC[C@H]2C)cc1`, the cytotoxicity call is “inactive”.
Consider `C[C@H]1CCCCO[C@H](CN(C)C(=O)Nc2ccc(C(F)(F)F)cc2)[C@@H](C)CN([C@@H](C)CO)C(=O)c2cc(NC(=O)c3ccncc3)ccc2O1`, for which the cytotoxicity call is “inactive”.
As for `COc1ccccc1S(=O)(=O)N[C@H]1CC[C@H](CCNC(=O)C2CC2)O[C@H]1CO`, the entry is “inactive”; as for `COc1ccc(/C=C/CN(C/C=C/c2ccc(OC)cc2)CCCNS(=O)(=O)c2cccc3cnccc23)cc1`, “inactive”.
In the case of `C[C@@H]1CN([C@H](C)CO)C(=O)c2cccc(NC(=O)c3ccc(-c4nccs4)cc3)c2O[C@H]1CN(C)Cc1ccc2c(c1)OCO2`, the cytotoxicity call was “inactive”.
As to `C[C@@H]1CCCCO[C@@H](CN(C)S(=O)(=O)c2cccs2)[C@@H](C)CN([C@@H](C)CO)C(=O)c2cc(NS(C)(=O)=O)ccc2O1`, the cytotoxicity call was “inactive”.
In the case of `Cc1ccc(S(=O)(=O)N(C)C[C@@H]2OCCCC[C@@H](C)Oc3ccc(NS(=O)(=O)c4ccc(Cl)cc4)cc3C(=O)N([C@H](C)CO)C[C@@H]2C)cc1`, the cytotoxicity call was “inactive”.
`C[C@@H]1CN([C@H](C)CO)C(=O)CCCn2nncc2CO[C@@H]1CN(C)S(=O)(=O)c1ccccc1C#N`: the cytotoxicity call is “inactive”.
Turning to `CN1C(=O)c2cc(NC(=O)c3ccc(F)c(F)c3)ccc2OC[C@@H]2O[C@H](CC(=O)N3CCOCC3)CC[C@@H]21`, the cytotoxicity call was “inactive”.
For the compound `C[C@@H]1CN([C@H](C)CO)C(=O)c2cc(NC(=O)Nc3cccc4ccccc34)ccc2O[C@@H](C)CCCCO[C@H]1CN(C)Cc1ccc(C(F)(F)F)cc1`, the cytotoxicity call was “inactive”.
Regarding `C[C@H](CO)N1C[C@H](C)[C@@H](CN(C)Cc2ccccc2)Oc2c(NC(=O)c3cnccn3)cccc2C1=O`, the cytotoxicity call is “inactive”.
As for `COc1ccc(NC(=O)Nc2cccc3c2O[C@@H](CN(C)S(=O)(=O)c2cn(C)cn2)[C@@H](C)CN([C@H](C)CO)C3=O)cc1`, the entry is “inactive”; as for `CN(C)CCN1C[C@H]2OCCN(Cc3cnn(C)c3)[C@H]2C1`, “inactive”.
Take `Cc1noc(C)c1NC(=O)N(C)C[C@H]1OCCCC[C@@H](C)Oc2ccc(NC(=O)c3ccccc3)cc2C(=O)N([C@@H](C)CO)C[C@H]1C`: the cytotoxicity call is “inactive”.
As for `COc1ccc2c3c([nH]c2c1)[C@@H](CO)N(C[C@]13CCN(CC1)C(=O)Nc1c(noc1C)C)C(=O)Nc1ccc(cc1)F`, the cytotoxicity call is “inactive”.
In the case of `C[C@H]1CCCCO[C@@H](CN(C)Cc2ccc3c(c2)OCO3)[C@@H](C)CN([C@@H](C)CO)C(=O)c2cc(NS(=O)(=O)c3cccs3)ccc2O1`, the cytotoxicity call is “inactive”.
Turning to `CS(=O)(=O)OCCCCOS(C)(=O)=O`, the cytotoxicity call is “inactive”.
As to `C[C@@H]1CCCCO[C@H](CN(C)C(=O)CCCN(C)C)[C@H](C)CN([C@H](C)CO)C(=O)c2cc(N(C)C)ccc2O1`, the cytotoxicity call is “inactive”.
As to `CC(C)NC(=O)Nc1ccc2c(c1)C(=O)N([C@@H](C)CO)C[C@H](C)[C@@H](CN(C)Cc1ccc(-c3ccccc3)cc1)O2`, the cytotoxicity call is “inactive”.
On to `O=C(C[C@H]1CC[C@H]2[C@@H](COC[C@@H](O)CN2C(=O)c2ccc(F)cc2)O1)NCCCN1CCOCC1`, for which the cytotoxicity call was “inactive”.
As for `Cc1noc(C)c1S(=O)(=O)N(C)C[C@@H]1Oc2ccc(NS(=O)(=O)c3ccc(F)cc3)cc2CC(=O)N([C@@H](C)CO)C[C@@H]1C`, the entry is “inactive”.
The same measure for `Cc1cnc(N)c(C)n1`: “inactive”; for `COCC#Cc1cnc2c(c1)C(=O)N([C@H](C)CO)C[C@@H](C)[C@H](CN(C)S(=O)(=O)c1cn(C)cn1)O2`: “inactive”.
As for `O=C(C[C@@H]1CC[C@H]2[C@@H](COC[C@@H](O)CN2C(=O)Nc2cccc(F)c2)O1)NCc1ccccc1Cl`, the entry is “inactive”; as for `CCOc1ccc(N2C(=O)/C(=C/C=C/c3ccccc3OC)S(=O)(=O)[C@@H]2c2cccc([N+](=O)[O-])c2)cc1`, “inactive”; as for `C[C@@H]1CN([C@@H](C)CO)C(=O)CCCn2cc(nn2)CO[C@@H]1CN(C)C(=O)Nc1ccc(N2CCN(C)CC2)cc1`, “inactive”.
In the case of `C[C@@H]1CN([C@H](C)CO)C(=O)c2cccc(NC(=O)c3ccc(-c4nccs4)cc3)c2O[C@H]1CN(C)C(=O)Nc1cccc2ccccc12`, the cytotoxicity call was “inactive”.
The same measure for `C[C@H]1CCCCO[C@H](CN(C)C(=O)Cc2ccccc2)[C@@H](C)CN([C@@H](C)CO)C(=O)c2cc(NC(=O)C3CCCCC3)ccc2O1`: “inactive”; for `COc1ccc(S(=O)(=O)Nc2ccc3c(c2)C(=O)N([C@@H](C)CO)C[C@H](C)[C@@H](CN(C)Cc2ccccc2)OCCCC[C@@H](C)O3)cc1`: “inactive”; for `CNC[C@@H]1OCCCC[C@@H](C)Oc2ccc(NC(=O)Nc3ccc(C(F)(F)F)cc3)cc2C(=O)N([C@H](C)CO)C[C@@H]1C`: “inactive”.
